The test system of the experiment is NCI-H322M. The settings on record: Non-Small Cell Lung Cancer, PG +50, 48 hours.

In turn, `Nc1ccn([C@@H]2CO[C@H](CO)O2)c(=O)n1` [(−)-OddC, (−)-(2S,4S)-1-(2-hydroxymethyl-1,3-dioxolan-4-yl)cytosine] came in with a Log10GI50 greater than −4.00.

(Values after US6436948B1, “Method for the treatment of psoriasis and genital warts” (priority 1995, dated 2002).)
